Test results from PMC4336329 (PLoS ONE, 2015).
Screen size: about 310,000 compounds; about 14,000 (4.5%) showed an effect of 50% or more. The effect is printed as a negative number. This is one part of the list.

Each compound was assayed against human ether-à-go-go-related gene (hERG) potassium channel (human, UniProt Q12809) (assay: primary screen, population patch clamp on CHO cells stably expressing hERG).
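Also: peak tail current of the secondary pulse compared with the same well before compound.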

Chain of human ether-à-go-go-related gene (hERG) potassium channel (Q12809 whole entry, looked up): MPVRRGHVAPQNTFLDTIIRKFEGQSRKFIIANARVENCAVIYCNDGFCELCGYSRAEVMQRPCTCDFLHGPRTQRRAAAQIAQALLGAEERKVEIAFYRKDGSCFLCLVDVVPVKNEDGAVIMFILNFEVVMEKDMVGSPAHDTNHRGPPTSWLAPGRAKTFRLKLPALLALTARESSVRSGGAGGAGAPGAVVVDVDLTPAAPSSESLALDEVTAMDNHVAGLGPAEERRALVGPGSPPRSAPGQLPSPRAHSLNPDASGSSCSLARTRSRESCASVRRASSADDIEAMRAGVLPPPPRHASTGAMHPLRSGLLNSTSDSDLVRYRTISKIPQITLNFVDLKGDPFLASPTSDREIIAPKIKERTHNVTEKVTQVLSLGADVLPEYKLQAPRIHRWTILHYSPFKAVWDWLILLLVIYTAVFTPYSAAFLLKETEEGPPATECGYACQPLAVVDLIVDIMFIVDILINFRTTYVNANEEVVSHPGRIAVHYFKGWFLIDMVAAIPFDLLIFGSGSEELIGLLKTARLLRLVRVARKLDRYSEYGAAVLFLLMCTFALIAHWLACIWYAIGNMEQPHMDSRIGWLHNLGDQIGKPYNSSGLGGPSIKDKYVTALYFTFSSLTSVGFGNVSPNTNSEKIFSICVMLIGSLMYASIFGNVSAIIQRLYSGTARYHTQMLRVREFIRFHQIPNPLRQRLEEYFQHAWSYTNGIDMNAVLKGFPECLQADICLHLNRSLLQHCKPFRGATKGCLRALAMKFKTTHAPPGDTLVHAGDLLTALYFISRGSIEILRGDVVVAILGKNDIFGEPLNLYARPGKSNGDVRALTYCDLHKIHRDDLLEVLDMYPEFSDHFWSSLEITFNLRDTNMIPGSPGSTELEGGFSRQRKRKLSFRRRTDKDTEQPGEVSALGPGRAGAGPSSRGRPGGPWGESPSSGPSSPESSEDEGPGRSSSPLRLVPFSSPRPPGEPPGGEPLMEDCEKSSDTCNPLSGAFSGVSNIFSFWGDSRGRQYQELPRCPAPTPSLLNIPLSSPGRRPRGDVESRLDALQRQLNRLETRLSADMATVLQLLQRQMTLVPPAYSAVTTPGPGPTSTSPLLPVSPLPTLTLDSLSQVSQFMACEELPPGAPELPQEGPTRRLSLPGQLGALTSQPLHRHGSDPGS

Structure (SMILES) | hERG current change (%, negative = inhibition) at 10uM
Cc1ccc(C)n1NC(=O)c1ccccc1Cl | -4.92%
CCCCCCC(O)(c1ccccc1)C(CN1CCOCC1)c1ccccc1.Cl (stereo not drawn) | 14.8%
Cc1ccc(-c2csc(N3CCN(S(=O)(=O)c4ccc5c(c4)NC(=O)CO5)CC3)n2)cc1 | 20.9%
CCOC(=O)c1c(-c2ccccc2)oc2ccc(OC(C)=O)cc12 | 15.3%
Fc1ccccc1N1CCN(c2cnc3ccccc3n2)CC1 | 15.4%
COc1ccc(CNC(=O)C(c2ccncc2)N(C(=O)Cc2cccs2)c2cccnc2)cc1 (stereo not drawn) | -16.9%
O=C1CCCc2nc(N3CCN(Cc4ccccc4)CC3)ncc21 | 9.33%
CCC(C(=O)NC(C)(C)C)N(C(=O)Cn1nnc(-c2cccs2)n1)c1cnc2ccccc2c1 (stereo not drawn) | -13.3%
Cc1nnc(C)n1/N=C/c1ccc(-c2ccccc2Cl)o1 | -11.3%
Cc1nn(-c2ccccc2)c2c1C(c1ccc(Cl)cc1)N(c1ccccc1)C(=O)N2 (stereo not drawn) | -64.6%
Cc1cc(C)cc(N(CC(=O)NC2CCCCC2)C(=O)CNC(=O)c2ccco2)c1 | -7.74%
CC1CN(C(=O)N[C@@H](Cc2ccccc2)C(=O)O)CC(C)O1 (stereo partly drawn) | 6.54%
CC(=O)NC(Cc1cc(C)ccc1C)C(=O)N1CCN(C(=O)c2ccc(Br)cc2)CC1 (stereo not drawn) | -71.8%
CC(C)NC(=O)C1CCN(C2CCN(C(=O)/C=C/c3cccs3)CC2)CC1 | -35%
O=[N+]([O-])c1cnccc1Nc1cccc(F)c1 | -18.1%
CC(C)(c1ccccc1)c1ccc(OCCN2CCCC2)cc1 | -36.2%
O=C(CSc1nnc(CNC(=O)c2ccc(F)cc2)o1)NCc1ccccc1Cl | -10.3%
COc1ccc(C2N(C(C)=O)CCCN2S(=O)(=O)c2ccc(C)cc2)cc1 (stereo not drawn) | -49.6%
COc1cccc(C2CC(c3cccs3)=NN2C(=O)CCC(=O)O)c1OC (stereo not drawn) | 10.9%

Structure (SMILES) | hERG current change (%, negative = inhibition) at 10uM
COc1cc(C(=O)NCC(c2ccccc2)N(C)C)ccc1OCC(=O)N1CCOCC1 (stereo not drawn) | 16.2%
NN1C(=O)NC(c2ccccc2)(c2ccccc2)C1=O | 5.79%
CCN(c1ccccc1)S(=O)(=O)c1ccc(NC(=O)C(C)(C)C)cc1 | -6.32%
Cc1nn(-c2cccc(Cl)c2)c2c1C(c1cccnc1)C(C#N)=C(N)O2 (stereo not drawn) | 15.4%
CCn1c(SCC(=O)c2ccc(O)c(O)c2)nnc1-c1ccc(C)cc1 | -7.4%
NS(=O)(=O)c1ccc(NC(=O)C(=O)NCCC(=O)O)cc1 | -12%
O=C(CNC(=O)c1cccs1)NCC(=O)OCc1ccc(Cl)cc1Cl | -10.2%
O=C(CN(c1ccccc1)S(=O)(=O)c1ccccc1)Nc1ccc(F)cc1 | 22.6%
O=C(CNC(=O)c1ccccc1)OCCCOC(=O)CNC(=O)c1ccccc1 | 11.8%
O=C(CCCc1c[nH]c2ccccc12)NCc1ccc2c(c1)OCO2 | -9.02%
COc1ccccc1N1CCN(C(=O)C2CCN(S(=O)(=O)c3ccc(F)cc3)CC2)CC1 | -25.3%
Cc1ccc(-n2c(-c3ccco3)nc3nc4ccccc4nc32)cc1 | -39%
CCCn1nc(NC(=O)C(C)C)c2cc3cc(OC)ccc3nc21 | -0.225%
CCC1CN(C(=O)Nc2cccc(C)c2)c2cc(C)ccc2O1 (stereo not drawn) | -5.7%
Cn1c(=O)c2c(ncn2CCC(=O)N/N=C/c2cccnc2)n(C)c1=O | 12.3%
Cc1c(C(=O)N2CCN(c3ccccn3)CC2)cccc1[N+](=O)[O-] | -10.6%
Cc1ccc(NC(=O)C2CC(=O)Nc3ncnn32)c(C)c1 (stereo not drawn) | -9.5%
COC(=O)Nc1ccc(S(=O)(=O)N2CCCCC2C(=O)O)cc1 (stereo not drawn) | 21.5%
Cc1cc(Br)ccc1SCC(=O)Nc1cccnc1 | 14.1%

Structure (SMILES) | hERG current change (%, negative = inhibition) at 10uM
Cc1cc(CNC(=O)COc2ccc(C#N)cc2)c2ccccc2n1 | -47.2%
N#CC(c1nc2ccccc2nc1N1CCCC1)S(=O)(=O)c1ccccc1 (stereo not drawn) | -14.9%
COc1ccc(NC2CCCN(C(=O)C3(C)CCCCC3)C2)cc1 (stereo not drawn) | 1.58%
CCOc1ccc(NC(=O)CSc2nccn2C)cc1 | 7.71%
O=C(NCCF)C1Nc2ccc(OC(F)(F)F)cc2C2C=CCC12 (stereo not drawn) | -11.8%
Cc1ccc(C)c(-c2csc(N/N=C/c3ccco3)n2)c1 | 14.2%
OCCCc1cn(CC2CCCCC2)nn1 | 2.61%
CC(C)(C)c1cc[n+](-c2[nH]c(=O)sc2/C=N/N=C(\[O-])c2cccnc2)cc1 | 26.2%
CC1(C)CC2(CC(c3ccccc3)Oc3cc(O)ccc32)NC(=O)N1 (stereo not drawn) | 3.54%
Cc1ccc(OCCn2cnc3c(N)ncnc32)cc1 | -14.6%
Oc1ccc(N2CCN(c3ncnc4sc5c(c34)CCC5)CC2)cc1 | -7.35%
COc1ccc2c(c1OC)C(=O)N1c3ccccc3COC21 (stereo not drawn) | 6.86%
CCCCC(=O)Nc1ccc(C2C(=O)c3ccccc3C2=O)cc1 | 17.1%
COc1cccc(/C=N/NC(=O)c2ccc(OCc3cccc(Br)c3)cc2)c1 | -18%
Cc1cc(OC(C)C(=O)NCC(O)c2ccccc2)c2c3c(c(=O)oc2c1)CCC3 (stereo not drawn) | -9.18%
O=C(Cc1ccccc1)Nc1nnc(-c2ccco2)s1 | 11.5%
CCCCC(=O)Nc1nnc(CCc2ccccc2)s1 | -3.92%
CCCCCCOc1ccc(NC(=O)CC2C(=O)N(CC)C(=S)N2Cc2ccco2)cc1 (stereo not drawn) | 1.66%
COc1cc(NC(N)=S)c(OC)cc1Cl | 6.66%
